# Measurements as given in the supplement of paper PMC11417369.
# ± gives the standard deviation of the averaged measurements. Some of the results follow.
# System: PfAP2-I AP2 domain 3 (GST-tagged)
# Assay: gcPBM binding intensity (ln(normalized median fluorescence intensity)); higher = stronger DNA binding
# In short: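 The highest Masliner-normalised natural-log median intensity across replicate spots of either probe orientation is reported as binding intensity. GST-tagged P. falciparum DNA-binding domains expressed in E. coli were applied for 1 h to an Agilent 4 × 180k array of primer-extended double-stranded 36-bp intergenic genomic probes plus negative controls, and bound protein was detected with Alexa488 anti-GST antibody and scanned at 488 nm.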
row,Sequence,gcPBM binding intensity (ln)
1,TTTAATTTTTAATCAGTGCAATATTATATAATATAT,10.5 ± 0.57
2,TATATGAAATATTATGCACACAATATATAATATGAT [CACACA_site936],9.86 ± 0.59
3,AATAATTCATCATATGCACACACAATACCAAAATGT [CACACA_site7945],8.69 ± 0.37
4,TCATTTTAATTAAAAGTGCAAAAAATAATATAACTA [GTGCAC_site9968],9.9 ± 0.18
5,ATTAATTCGTTTTGTACACACATAATGAATAATTTA [CACACA_site2235],7.73 ± 0.41
6,CAAAAATAATAGAATACATGCAAAAATAAATGTATA [TGCATGCA_site196],7.59 ± 0.71
7,TTTTTTTTTAAAACATAATAAAAAATAAAACAACCT [GTGCAC_negctrl_site92],8.32 ± 0.34
8,ATAATATATTTAATCATACACACATTTATGTACCTA [CACACA_site1719],7.7 ± 0.57
9,AAAAATAAAGGGTGTGCACACAAAAATATATATATA [CACACA_site1727],9.8 ± 0.14
10,TAATGACAATAAAAATAAATAAATAAAAAAAAAAAA [TGCATGCA_negctrl_site321],7.89 ± 0.92
11,AATAAATAAATAAATAAATAAATATATATATATATA [GTGCAC_negctrl_site330],9.23 ± 0.49
12,ATATATTATCTGTACACACACATATAAGGGATTATA [CACACA_site4180],8.19 ± 0.35
13,AAGAAAATAAAAAGGTAAATATGTATAAATAAATAA [TGCATGCA_negctrl_site88],7.51 ± 0.83
14,TGAAATAAAATTATTTGTACATATCGGAAAAAAAAA [XGTACX_site7131],7.87 ± 0.61
15,TTTTTTGAAAATAAATGTACGAATTTTATATTTAAA [XGTACX_site2768],7.58 ± 0.31
16,AAGGCATATATAATTTGTACATATTAAGAATTAGAT [XGTACX_site8660],8 ± 0.54
17,AAATTACCCATCCATACACACATATTTTTTTTAATT [CACACA_site2189],7.96 ± 0.64
18,GATACAGATGGACACACACACATACATAAATACATA [CACACA_site5833],8.13 ± 0.28
19,TAAATATATTTATAAGCACACACTAATAAACCCACA [CACACA_site390],8.84
20,AATTTTTATACGGATACACACAAAAAAAAATAAAAA [CACACA_site897],7.89 ± 0.54
21,AAAATATATTATTATTGTACATATATTTTCATTTAC [XGTACX_site4593],8.15 ± 0.13
22,TTTATTTTGTTTATGGTGCATTTTATGTAAATATAT,10.3 ± 0.51
23,TATATATATTTATAATGTACACATATATGTAAATAT [XGTACX_site3695],7.97 ± 0.29

row,Sequence,gcPBM binding intensity (ln)
1,TGCCCTAACCATACTACACACACTGCTCAAAATAGT [CACACA_site2219],8.4 ± 0.54
2,TACAATATAAAATACACACACACAAACATATATTTA [CACACA_site5941],7.78 ± 0.49
3,ATAATTATATACCATGCACACAAATATTCATACAGG [CACACA_site9343],8.29 ± 0.56
4,AAGAACCATATTTAAACACACATACCTATATAAATA [CACACA_site7553],7.68 ± 0.53
5,AAAAAATACATACATACACACATATTTATTTATATA [CACACA_site6554],7.67 ± 0.42
6,TTATGCATATATTATGCATGTAGTTTTAAATCACAT [TGCATGCA_site104],7.84 ± 0.71
7,TATATACACATTTTTATACACACTTGTTTTATAAAA [CACACA_site8139],7.87 ± 0.38
8,GCACAAATATATATATATATATATATATATATATAT [GTGCAC_negctrl_site661],9.07 ± 0.54
9,AATATATATATAAATAATATACCTATATATTTTTTG [XGTACX_negctrl_site407],7.28 ± 0.4
10,AAAAACAATTTAATCACACATATATGTCACAAAGAT [CACACA_site5043],7.91 ± 0.77
11,CACTTAAAAAGCTAACGTACAAATACACATATATAA [XGTACX_site1851],7.87 ± 0.37
12,ATATTAAATATTATCACACACATAATTATTTCCATA [CACACA_site2334],8 ± 0.42
13,CAAAATATTTTTTCCTGTACATAATTCCTATTTCAC [XGTACX_site3590],7.92 ± 0.85
14,ATATAATAATATGGTTGTACATAAATAACACATGAA [XGTACX_site6592],7.98 ± 0.31
15,ATATATATATATATATGTACATACATATTGTTTGGT [XGTACX_site2284],9.37 ± 0.31
16,TAATAATAGAAACACACACACATAGACATATATATA [CACACA_site1307],7.96 ± 0.67
17,ATGATTATACAAAATATACACACGTGTAGACAAATA [CACACA_site1175],7.85 ± 0.67
18,TATTTTCAAAATGTTGTACACACAAAAAAAAAAAAA [CACACA_site8437],8.29 ± 0.43
19,ATATACTTTTCAATGTGTACTTATGAATATATATGT [XGTACX_site7972],8.02 ± 0.26
20,TATTTATAAATATGTGTGCACAATTTATTTTATAAT,11 ± 0.26
21,TTATTTCTAACATGATGTACTTTTATATTATATAAT [XGTACX_site3574],7.88 ± 0.44
22,TTTTTTTTATATATCTGTACATATATATATATATAT [XGTACX_site8280],9.3 ± 0.35
23,AGTAGCGGCGGTATCATGCACACGTATAGATTGTAA [CACACA_site1587],8.31 ± 0.76

row,Sequence,gcPBM binding intensity (ln)
1,TTGTTTATATATATATGTACATATTTTAAGGCATCC [XGTACX_site6976],8.29 ± 0.3
2,CCACGTATACGATGCACACGTATGCTTTATATATAG [CACACA_site4108],8.24 ± 0.48
3,ATTAAATCCGCACGCACACACACATATTAAGAAAAA [CACACA_site6062],9 ± 0.014
4,GTTGAAAAAAATATATGTACGTATATATGTATGTAT [XGTACX_site8201],8.23 ± 0.38
5,ATTATTACTATATGTGTACACATCAACTGGTTTGAT [CACACA_site5563],8.18 ± 0.6
6,TTGGTAAATATATTTTGAATATAAGAAATATAGACG [CACACA_negctrl_site1634],7.86 ± 0.48
7,TATATATATAACAGAATGCACTTTATATGTTCATAT [GTGCAC_site9880],9.52 ± 0.19
8,TATACGTATACCTATACACACATATATTTATTTATA [CACACA_site6716],7.89 ± 0.44
9,GATATCCTTATATTTGCACACACACCCAATAAAATG [CACACA_site1028],9.54 ± 0.22
10,AAAAAATACAGACACACACACACACGCATATAAATA [CACACA_site7644],7.94 ± 0.48
11,TAATAAATTCATAATTGTACATTGAAGTATTATGCA [XGTACX_site5121],7.65 ± 0.37
12,TTTTTTTATTTTGTATGTACATATCATTTGATATTC [XGTACX_site8449],7.97 ± 0.73
13,AAAAAAGAAAAAAAGTGTACAATATTTATTACATAT [XGTACX_site2277],7.79 ± 0.43
14,GCAAAGCACAAATATGCATGTAGATATAGAATAATG [TGCATGCA_site382],8.32 ± 1
15,ATAATCCTTGGACACACACACACACTAGTAAATAAA [CACACA_site4423],8.29 ± 0.27
16,AACCCAAAATAATTATGTACATATTTTTAAATATAT [XGTACX_site6487],7.92 ± 0.34
17,TTTGTGTATATAACAGTGCAATATTATAAATATAAA [GTGCAC_site9750],10.5 ± 0.51
18,CTTAAAGGGAAAAATACACACATATAAATATTATGT [CACACA_site2225],7.41 ± 0.46
19,ACTTAATTTTTTTTATGTACTTATTTAAAAAATTTT [XGTACX_site2712],8.09 ± 0.19
20,TTAGTAGTATTATGTAGTACATAATTATCATATCAT [XGTACX_site817],8.01 ± 0.28
21,TAATTATTTTTATATTGTACAATATGTAAATATATA [XGTACX_site592],7.59 ± 0.23
22,ATAAATAAATAAATCTGTACATATGTATATGTATAT [XGTACX_site4537],7.61 ± 0.36
23,AATTAAAAAAAAAAAAAAAAAAAAAAATGAAAAAAA [CACACA_negctrl_site1073],7.42 ± 0.57

row,Sequence,gcPBM binding intensity (ln)
1,AAAAAAAAAAAAAAAAGTACATACAACATTATGAAA [XGTACX_site207],8.78 ± 0.33
2,TTTTTTGAATTTAAAAGTACAGGCTTTTACCAAATA [XGTACX_site1356],7.7 ± 0.45
3,CATTTCTATATAAGCACACACGTGGAATTTTTTTTT [CACACA_site5537],9.03 ± 0.41
4,TCATATTATAAATAAATAAATAAATATATATATATA [CACACA_negctrl_site577],9.32 ± 0.31
5,AAATCGTAATATATTTGTACTTATTTGAAAAATCCA [XGTACX_site8141],7.76 ± 0.33
6,ATTATTTGAACAACAAAAAAAAAGAAAAGAAAAGAA [CACACA_negctrl_site1031],8.3 ± 1.2
7,AACACGCGCAGACACACACACACACGCACATATATA [CACACA_site7104],8.35 ± 0.6
8,TTTTTTTTCTTTTTTTTAAGAAATAAATAAATAATT [XGTACX_negctrl_site137],7.32 ± 0.16
9,TATATTTCATTATATTGTACAAAATATATATATTAT [XGTACX_site4644],7.76 ± 0.4
10,ATGTATATAAATATACGTACATAAATATAAGTATAG [XGTACX_site7155],7.83 ± 0.23
11,ATACATGAATAAATATGTACACATATAAAAACATAT [XGTACX_site2740],7.96 ± 0.23
12,CATTATATATATTACTAAAAATTTTACCCCTTAGCT [CACACA_negctrl_site302],7.93 ± 0.48
13,TTTTTTCTTTTTATGTGTACTTATTTTATTTAATAA [XGTACX_site1080],8 ± 0.49
14,CTATAATAACATAACACACACATGTATTTATAGGTG [CACACA_site6298],7.79 ± 0.57
15,ATATATATACAACAAGCATGCAGTAATTTTTTTTTT [TGCATGCA_site728],8.52 ± 0.79
16,TCCTTATAAAAATACACACAAACTTTAATTAAAACA [CACACA_site3730],7.75 ± 0.33
17,TATTATATTTATTTATGTACACATATACTTAAATAA [XGTACX_site1355],7.78 ± 0.43
18,TGTAATACAGAAAAAAGTACTAAAAAGAAAAGGATT [XGTACX_site3176],8.445 ± 0.049
19,ACACCTATAAATTAAGTGCATTTTTTTTGATGTTAT,9.45 ± 0.46
20,TTTTTTTTTTTAATATGTACGTAAAATAAGTTTAAA [XGTACX_site6495],8.06 ± 0.18
